Experimental data published in patent US9650423B2, “Long peptides of 22-45 amino acid residues that induce and/or enhance antigen specific immune responses” (priority 2000, dated 2017).

System: TC-1 tumor (HPV 16 E6/E7 and c-H-ras)
Experiment: Therapeutic vaccination of tumor bearing mice
[1] = vaccinated with ODN-CpG when tumors palpable and 14 days later

With “RAHYNIVTF (minimal 9 amino acid long CTL epitope) [E7 49-57, reference compound]” the “mice that died of their tumor” value (vaccinated with CpG, 65 days follow-up) was 6/9, the “animals with complete eradication” value [1] was 30% and the “mice with complete eradication of tumor” value [1] was 3 out of 9.
